Data: PubChem BioAssay AID686979 (National Center for Advancing Translational Sciences (NCATS), 2013)
In all, about 420,000 compounds went through this assay and about 50,000 (12%) were called active. Inconclusive means that the source gave no clear call. Such entries were picked first, then a sample of the others. The call rests on the fitted dose curve; in most records, active means well fitted inhibition curve with a large enough effect; inconclusive means small, poorly fitted or top-dose-only effect; inactive means flat fitted curve, though single readings scatter. Potencies of inconclusive entries are left out as doubtful fits.

Assay: qHTS for Inhibitors of human tyrosyl-DNA phosphodiesterase 1 (TDP1): qHTS in cells in presence of CPT; further: nearly all actives have a fitted effect of over 55% in size
Settings: chicken DT40 Tdp1-/-;hTDP1 cells + 20 nM CPT, ATP luminescence, 48 h; activity change, negative = growth inhibition: at 46.2 µM (top of the series) unless noted
Procedure, shortened: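 Chicken DT40 Tdp1-/- cells stably complemented with human TDP1 were seeded at 400 cells/well in medium containing 20 nM camptothecin, exposed to pin-transferred compounds, and grown at 37 °C for at least 48 hr. Viability was read as ATP luminescence.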
On the % scale 0 is the no-effect control and ±100 the full control effect; potency means the concentration at half of the fitted maximal effect; tags describe the fitted curve by direction and shape.

| Compound | Potency | activity change, negative = growth inhibition |
| --- | --- | --- |
| CCOc1ccc(NC(=O)CSc2nc(C)c(C(=O)Nc3ccccc3)c(-c3ccc(Cl)cc3)c2C#N)cc1 | inactive |  |
| Cc1ccccc1Sc1ncnc2onc(C)c12 | active: 23.1 µM |  |
| Cc1nnc(Sc2cc(C(=O)NCc3ccco3)c3ccccc3n2)s1 | inconclusive [inhibitor, single point] |  |
| CC(=O)NCCNc1cc(-c2ccccc2C)ncn1 | inactive |  |
| O=C(Nc1nc2ccccc2[nH]1)c1ccccc1 | inconclusive [inhibitor, single point] |  |
| Cc1ccc(CNC(=O)c2cccnc2)cc1 | inactive |  |
| CC1=C(C(=O)N2CCOCC2)CC(CC(=O)NC2CC2)C(=O)N1Cc1ccc(C(C)(C)C)cc1 (stereo unspecified) | inactive |  |
| Cc1ccc(NC(=O)c2c(C)noc2-c2snnc2C)cc1 | inconclusive [inhibitor, single point] |  |
| COc1cccc(NC(=O)Nc2ccc(C)c(Cl)c2)c1 | inconclusive [inhibitor, single point] |  |
| COCCNC(=O)C(c1ccc(F)cc1)N(Cc1ccccc1)C(=O)CCC(=O)Nc1nccs1 (stereo unspecified) | inactive |  |
| O=C(Nc1ccc(OC(F)(F)F)cc1)c1nc2ccccc2nc1N1CCCCC1 | inactive |  |
| O=C(NC(=S)NNC(=O)c1ccccc1O)c1ccc([N+](=O)[O-])cc1 | active: 25.9 µM |  |
| COc1ccc(N=CC2=C(O)CC(C)(C)CC2=O)cc1 |  | inconclusive: -31.2% [inhibitor] |
| Cc1ccc(NC(=O)CN(C)C(=O)c2sc3cc(Cl)ccc3c2Cl)cc1 | inactive |  |
| COCc1ccc(CN2CCC(CO)(CC3CCCCO3)CC2)o1 (stereo unspecified) | inactive |  |
| Cc1ncc(S(=O)(=O)c2ccccc2)c(-c2ccccc2Cl)n1 | inactive |  |
| C/C(=N\NC(=O)C1(C)CC1(Br)Br)c1cccc(NC(=O)C2CCC2)c1 (stereo unspecified) | active: 18.4 µM |  |
| O=C(c1ccccc1)c1c(-c2ccccc2)[nH]n(-c2ccccc2)c(=O)c1=O | inactive |  |
| Cc1ccc(-c2nn(-c3ccccc3)cc2C(=O)NCCCN2CCCC2=O)cc1 | inconclusive [inhibitor, single point] |  |
| CCOc1ccc(C(=O)NC(=S)N(Cc2ccccc2)Cc2ccccc2)cc1 | active: 20.6 µM |  |
| CC(=O)Oc1ccc([C@@H]2COc3c(ccc4c3C=CC(C)(C)O4)C2)c(OC(C)=O)c1 | inconclusive [inhibitor, single point] |  |
| O=C(Nc1ccc2c(c1)OCO2)N1CCN(c2ccccc2)CC1 | inactive |  |
| COc1cccc(C(c2nnnn2CC2CCCO2)N2CCN(C(=O)c3ccco3)CC2)c1OC (stereo unspecified) | inactive |  |
| O=C(NCCc1nnc2ccc(N3CCCCCC3)nn12)c1ccccc1F |  | inconclusive: -31.3% [inhibitor] |
| Oc1cc(OCc2ccccc2)ccc1-c1[nH]ncc1-c1ccccc1 | active: 10.3 µM |  |
| COc1ccc(S(=O)(=O)N2CCCC2CNC(=O)C(=O)NCc2cccs2)cc1 (stereo unspecified) | inconclusive [inhibitor, single point] |  |

| Compound | Potency | activity change, negative = growth inhibition |
| --- | --- | --- |
| COc1ccc(S(=O)(=O)N2CCCCC2)cc1C(C)C | inconclusive [inhibitor, partial curve] |  |
| COc1ccc(N2CCN(C(=S)Nc3ccc(OC)cc3OC)CC2)cc1 | inconclusive [inhibitor, single point] |  |
| S=c1[nH]ncn1/N=C/c1ccc(N2CCOCC2)cc1 | inactive |  |
| Cc1ccc(S(=O)(=O)c2cc(OC(=O)c3ccco3)ccc2OC(=O)c2ccco2)cc1 | inconclusive [inhibitor, partial curve] |  |
| CC(=O)Nc1ccc(NC(=O)c2nc(S(=O)(=O)Cc3cccc(C)c3)ncc2Cl)cc1 | active: 0.058 µM |  |
| O=S(=O)(Nc1ccc2nc(-c3ccco3)[nH]c2c1)c1ccccc1 | inconclusive [inhibitor, single point] |  |
| COc1ccc(CONc2ncnc3nonc23)cc1[N+](=O)[O-] | inconclusive [inhibitor, single point] |  |
| CCn1c2ccccc2c2cc(CN3CCN(Cc4ccccc4Cl)CC3)ccc21 | inconclusive [inhibitor, single point] |  |
| O=C(NCCC1=CCCCC1)c1ccc2c(c1)N(Cc1ccccc1)C(=O)CS2 | inconclusive [inhibitor, single point] |  |
| COc1ccc(CC(=O)n2nc(-c3ccc(Cl)cc3)nc2NCc2ccco2)cc1 | inconclusive [inhibitor, partial curve] |  |
| O=C(Nc1ccccc1Br)c1ccccc1-c1ccccc1 | active: 5.8 µM |  |
| COC(=O)/C=C/c1ccsc1NC(C)=O | inactive |  |
| CCc1ccc(-n2c(=O)c3c(C)c(C)sc3n(CC(=O)NCc3ccc(C)cc3)c2=O)cc1 | inactive |  |
| COc1ccc(CCN(Cc2nc3ccccc3c(=O)[nH]2)C(=O)C2CC2)cc1 | inactive |  |
| COc1cc(F)ccc1-c1csc(C(NC(C)=O)c2ccc(F)c(F)c2)n1 (stereo unspecified) | inconclusive [inhibitor, single point] |  |
| CCOC(=O)c1ccc(NC(=O)/C(C#N)=C/c2ccc(OC)cc2)cc1 | inactive |  |
| O=C(NCc1ccccn1)C1CC(c2ccc(Cl)c(Cl)c2)=NO1 (stereo unspecified) | inconclusive [inhibitor, partial curve] |  |
| COc1ccccc1-n1ccnc(SCC(=O)NCc2ccccc2Cl)c1=O | inconclusive [inhibitor, single point] |  |
| O=C(Nc1ccc(N=Nc2ccccc2)cc1)c1cccc(Cl)c1 | inconclusive [inhibitor, single point] |  |
| O=S(=O)(c1ccccc1C(F)(F)F)N1CCC(n2cnc3ccccc32)CC1 | inconclusive [inhibitor, single point] |  |
| CCSc1nc2ccccc2n1Cc1ccccc1F | inactive |  |
| COc1ccccc1N1CN(Cc2ccccc2)CNC1=S | inactive |  |
| OC[C@H]1O[C@H](c2nc(-c3nc(-c4cccc(-n5cccc5)c4)no3)cs2)C[C@@H]1O | inconclusive [inhibitor, single point] |  |
| N#C/C(=C/c1ccc(Cl)cc1)c1nc(-c2ccc(Br)cc2)cs1 | inactive |  |
| COc1ccccc1NC(=O)Cc1noc(CSc2nnc(C)n2C)n1 | inactive |  |
| O=S(=O)(NCc1nc2cccnc2n1Cc1ccccc1)c1ccc2c(c1)CCCC2 | inconclusive [inhibitor, single point] |  |

| Compound | Potency | activity change, negative = growth inhibition |
| --- | --- | --- |
| COc1ccc(C(=O)N/N=C\c2coc3ccc(C)cc3c2=O)cc1 | inactive |  |
| CN(CC(=O)N1CCc2ccccc21)S(=O)(=O)c1cccs1 | inactive |  |
| O=C(CSc1nnc(SCc2ccc(Cl)cc2)s1)N/N=C/c1ccc(C(=O)O)cc1 |  | inconclusive: -36.4% [inhibitor] |
| CCCN(CCC)C(=O)Cn1c(=O)n(-c2ccccc2)c(=O)c2c3c(sc21)CCCC3 | inconclusive [inhibitor, single point] |  |
| COc1ccc(C2c3c(ncn(CCN4CCOCC4)c3=N)Oc3ccc4ccccc4c32)cc1OC (stereo unspecified) | inconclusive [inhibitor, partial curve, poor fit] |  |
| Cc1cc(Br)cc(C)c1OCCCCN(C)C | active: 29.1 µM |  |
| Cc1ccc(S(=O)(=O)N(CCCN(C)C)Cc2ccc3c(c2)OCO3)cc1 | active: 16.4 µM |  |
| CC1CCCCC1NC(=O)CN1C(=O)NC(C)(c2ccc(OC(F)F)cc2)C1=O (stereo unspecified) | inconclusive [inhibitor, single point] |  |
| CC(=O)N1N=C(c2ccncc2)OC1(Cc1ccccc1)Cc1ccccc1 | inconclusive [inhibitor, single point] |  |
| COc1cc(/C=C(\C#N)c2nc3ccccc3[nH]2)cc(Cl)c1OCc1ccccc1Cl | active: 7.31 µM |  |
| Cc1cc(OCc2nc(-c3ccncc3)no2)cc(C)c1Cl | inactive |  |
| N/C(=N\c1nc2ccccc2o1)NC(=O)/C=C/c1ccccc1 | inconclusive [inhibitor, single point] |  |
| Cc1ccc(CSc2oc(-c3ccco3)nc2S(=O)(=O)c2ccc(C)cc2)cc1 | inconclusive [inhibitor, single point] |  |
| COc1cccc(Cn2c(=O)c3ccccc3n3nc(C)cc23)c1 | inconclusive [inhibitor, single point] |  |
| CCCN(C(=O)c1cnccn1)c1c(N)n(Cc2ccccc2)c(=O)[nH]c1=O | inactive |  |
| Cn1c(=O)c2c(-c3cccc(Br)c3)c(C#N)c(N)nc2n(C)c1=O | inconclusive [inhibitor, single point] |  |
| COc1cc(/C=C2/C(=O)ON=C2C)ccc1OCc1ccccc1F | active: 11.6 µM |  |
| O=C(COc1ccc(Cl)cc1Cl)Nc1cccc(-c2ccc(N3CCOCC3)nn2)c1 | active: 18.4 µM |  |
| CC(C)(C)OC(=O)NCc1ccc(CNC(=O)c2nc[nH]c2C(=O)N2CCN(C(=O)OC(C)(C)C)CC2)cc1 | inconclusive [inhibitor, single point] |  |
| COc1ccc(CNCC(=O)Nc2ccccc2-n2cccc2)cc1 | active: 8.2 µM |  |
| O=C(CCCCn1c(=O)c2ccccc2n(Cc2ccc(F)cc2)c1=O)NCc1ccco1 | active: 16.4 µM |  |
| CCN(C(=O)C1CSC2(C)CCC(=O)N12)c1nc2c(C)cccc2s1 (stereo unspecified) | inconclusive [inhibitor, single point] |  |
| COCc1c(C(=O)NC2CCCCC2)cnn1-c1nccc(-c2cc(C)sc2C)n1 | inconclusive [inhibitor, full curve, poor fit] |  |
| COc1cc(OC)c(C(=O)C=Cc2ccc(OC)c(OC)c2)c(OC)c1 | inconclusive [inhibitor, single point] |  |
